Measurements: PubChem BioAssay AID686979 (National Center for Advancing Translational Sciences (NCATS), 2013)
Where “and” joins values, the source holds several entries; their conditions need not be identical. Equal values may be shown once. Hit rate of the full screen: of about 420,000 compounds, about 50,000 (12%) were called active. Inconclusive means that the source gave no clear call. Such entries were picked first, then a sample of the others. Calls follow the shape of the dose curve; as a rule, active = well fitted inhibition curve with a large enough effect; inconclusive = small, poorly fitted or top-dose-only effect; inactive = flat fitted curve, though single readings scatter. Potencies beside an inconclusive call are fits to weak or partial responses and may not hold up.

test: qHTS for Inhibitors of human tyrosyl-DNA phosphodiesterase 1 (TDP1): qHTS in cells in presence of CPT; conditions: chicken DT40 Tdp1-/-;hTDP1 cells + 20 nM CPT, ATP luminescence, 48 h; activity change, negative = growth inhibition: at 46.2 µM (top of the series) unless noted; also: nearly all actives have a fitted effect of over 55% in size
How it was run: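 Cell growth measured by CellTiter-Glo luminescence after a minimum 48 h, 37 C compound exposure with 20 nM CPT in Tdp1-knockout DT40 cells stably expressing hTDP1, seeded 400/well; qHTS titration format.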
% is scaled to controls: 0 for no effect and ±100 for the full control effect; potency is read from the fitted curve at half-maximal effect; tags tell the direction and shape of the fitted curve.

SMILES | Potency | activity change, negative = growth inhibition
CCc1ccccc1OCC(=O)Nc1cc(S(=O)(=O)N2CCOCC2)ccc1N1CCCCC1 | active: 23.1 µM | 
COc1ccc(OC)c(NC(=O)CCCc2ccccc2)c1 | inactive | 
COc1ccc(C(=O)N/N=C(\CCC(=O)O)c2ccc(C(C)(C)C)cc2)cc1OC | inactive | 
O=C(NCC(F)(F)F)c1ccc(S(=O)(=O)NCCc2ccc3c(c2)OCCO3)cc1 | inconclusive: 11.6 µM [inhibitor, partial curve] | 
CC(C)[C@H]1CN=C2N(CCNC(=O)CCC3CCCCC3)[C@H](Cc3ccc(O)cc3)CN21 | active: 13 µM | 
CC(C)COc1ccc(-c2nonc2NC(=O)c2ccc(F)cc2)cc1 | inconclusive: 9.2 µM [inhibitor, partial curve] | 
O=C1c2ccccc2NC(c2ccc(-c3ccc(Br)cc3)o2)N1O (stereo unspecified) | inconclusive: 29.1 µM [inhibitor, single point] | 
CCOc1ccc(C(C)=O)cc1COC(=O)c1ccccc1C(=O)N(C)Cc1ccccc1 | active: 18.4 µM | 
CCN(CC)c1ccc(S(=O)(=O)N2CCCCC2)cc1NC(=O)CSCc1c(C)noc1C | inconclusive: 29.1 µM [inhibitor, single point] | 
O=c1[nH]c(CSc2ncc(-c3ccc(F)cc3)n2Cc2ccco2)nc2ccccc12 | active: 18.4 µM | 
Cc1cccc(OCC(=O)N(Cc2ccc(C(C)C)cc2)Cc2ccco2)c1C | active: 16.4 µM | 
Cc1nonc1CC(=O)N1CCCC(C(=O)c2ccc(Cl)cc2)C1 (stereo unspecified) | inconclusive: 25.9 µM [inhibitor, single point] | 
CCN1CCN(CCCOc2ccccc2-c2ccccc2)CC1 | inconclusive: 29.1 µM [inhibitor, single point] | 
O=C(CSc1ccc(-c2ccncc2)nn1)c1ccc(Cl)cc1 | inactive | 
CCN(C(=O)c1nn(-c2ccc(C)cc2)c(=O)c2c1c1ccccc1n2C)c1ccc(F)cc1 | inconclusive: 14.6 µM [inhibitor, partial curve] | 
Cn1c(N)c(S(=O)(=O)NCc2ccc(F)cc2)c(=O)n(C)c1=O | inactive | 
Cc1cc(=O)oc2cc(OCC(=O)OCC(=O)Nc3ccccc3C(C)C)ccc12 | inactive | 
Cn1c(CCN2CCN(c3ccccn3)CC2)nc2cc(NS(=O)(=O)c3ccccc3)ccc21 | inconclusive: 25.9 µM [inhibitor, single point] | 
O/C=c1\ccc2cccc3nc(C(F)(F)F)nc1c23 | active: 10.3 µM | 
Cc1nn(CCC(=O)N2CCN(S(=O)(=O)c3ccc(Cl)cc3)CC2)c(C)c1C | inactive | 
COc1ccc(NC(=O)C(C)n2c(C)c3cnn(-c4ccccc4)c(=O)c3c2C)cc1Cl (stereo unspecified) | active: 23.1 µM | 
COc1ccc(N=Nc2nc(-c3ccccc3)c(-c3ccccc3)[nH]2)cc1 | inconclusive: 29.1 µM [inhibitor, single point] | 
COc1ccc(OCCSc2nnc(Cc3cccc4ccccc34)n2N)cc1 |  | inconclusive: -34.4% [inhibitor]
Cc1c(O)ccc(C(=O)CN2CCN(c3ccccc3)CC2)c1O | inconclusive: 29.1 µM [inhibitor, single point] | 

SMILES | Potency | activity change, negative = growth inhibition
CCOC(=O)c1cc(-c2ccc(F)cc2)n(CCC(=O)NCc2ccccc2OC)c1C | inconclusive: 18.4 µM [inhibitor, single point] | 
CN(CCc1ccccn1)C(=O)CCC1CCCN(C(=O)c2c3c(nn2C)CCCC3)C1 (stereo unspecified) | inactive | 
O=C(NCCCCc1ccccc1)Nc1cccc(F)c1 | inconclusive: 29.1 µM [inhibitor, partial curve, poor fit] | 
Nc1[nH]c(C(=O)c2ccccc2)c(-c2ccccc2Br)c1C(=O)c1ccccc1 | inconclusive: 29.1 µM [inhibitor, single point] | 
CC(C)S(=O)(=O)N1CCN(c2ccnc3cc(Cl)ccc23)CC1 | inconclusive: 13 µM [inhibitor, partial curve, poor fit] | 
O=C(CN(Cc1ccccc1)S(=O)(=O)c1ccc(F)cc1)NCc1ccccn1 | inactive | 
CCOc1ccc(-c2nnc(-c3ccco3)o2)cc1OCC | inconclusive: 20.6 µM [inhibitor, partial curve] | 
CCOc1ccc(NC(=O)Cc2ccc(-n3c(C)nc4cccnc43)cc2)cc1 | inconclusive: 18.4 µM [inhibitor, single point] | 
CCCCNc1c(-c2ccc(SC(C)CC)cc2)nc2ccccn12 (stereo unspecified) | active: 16.4 µM and active: 13 µM | 
COc1ccccc1-c1c(C(F)(F)F)oc2cc(OC(=O)c3ccccc3[N+](=O)[O-])ccc2c1=O | inconclusive: 18.4 µM [inhibitor, single point] | 
Cc1cc(OCCN2CC(C)OC(C)C2)ccc1[N+](=O)[O-] (stereo unspecified) | inconclusive: 20.6 µM [inhibitor, single point] | 
Cc1nc(NS(=O)(=O)c2ccccc2)sc1C(=O)NN | inactive | 
COc1ccc([C@H]2C[C@@H](n3cc(COC(=O)c4ccccc4)nn3)[C@H](O)CN2CC2CCCCC2)cc1 | inconclusive: 29.1 µM [inhibitor, single point] | 
COc1ccc(N2CSC(=S)N(c3ccc(OC)cc3)C2)cc1 | active: 16.4 µM | 
COc1ccc(C(=O)N2CCCCC2C(=O)Nc2ccc(-n3nc(C)cc3C)cc2)o1 (stereo unspecified) | inconclusive: 20.6 µM [inhibitor, single point] | 
O=C(NCCN1CCOCC1)c1cc(Cl)ccc1Cl | inactive | 
O=C(Nc1ccn(Cc2ccccc2F)n1)c1ccc(COc2ccc(Br)cc2)cc1 | active: 11.2 µM | 
CS(=O)(=O)N(CC(=O)N/N=C/c1cc2c(cc1Br)OCO2)c1ccccc1Br | inconclusive: 23.1 µM [inhibitor, single point] | 
CN1CCN(c2nc(-c3ccc4c(c3)OCO4)nc3ccccc23)CC1 | inconclusive: 23.1 µM [inhibitor, single point] | 
COc1ccc(C2=CC(=O)C[C@H](c3ccc(F)cc3)C2)c(OC)c1 | inconclusive: 29.1 µM [inhibitor, single point] | 
CCOC(CNC(=O)c1ccc2c(c1)ncn2-c1ccc(F)c(F)c1)OCC | inactive | 
CC(=O)N1CCC(N(Cc2ccco2)C(=O)Nc2ccc(Br)cc2F)CC1 | inactive | 
CC(C)NC(=O)C1(C)CCCCN1Cc1ccc(OCc2ccccc2)cc1 (stereo unspecified) | active: 2.31 µM | 
COCCNC(=O)CN(Cc1cccs1)C(=O)CCC(=O)Nc1nccs1 | inactive | 

SMILES | Potency | activity change, negative = growth inhibition
Cn1cc(C(=O)c2cccc(Cl)c2)cc1C#N | inactive | 
COc1ccccc1CN1C[C@@H]2C[C@@H](c3[nH]c4ccc(C)cc4c3C)N3CCC[C@@]23C1=O | inconclusive: 29.1 µM [inhibitor, single point] | 
COc1cc(/C=N\NC(=O)CN2CCOCC2)ccc1OCC(=O)Nc1ccc(C)c(C)c1 | inconclusive: 29.1 µM [inhibitor, single point] | 
CCc1nc(Nc2ccc(N3CCN(C(C)=O)CC3)cc2)c2oc3ccccc3c2n1 | active: 20.6 µM | 
CC(C)c1ccc(N(CC(=O)NC2CCCCC2)C(=O)CCC(=O)Nc2ccccn2)cc1 | inconclusive: 20.6 µM [inhibitor, single point] | 
CCOc1ccc2nc(NC(=O)COC)sc2c1 | inactive | 
O=C(Nc1cc(Cl)ccc1Cl)c1cc(S(=O)(=O)N2CCCc3ccccc32)ccc1F | active: 23.1 µM | 
O=[N+]([O-])c1cccc(/C=N/n2c(COc3ccccc3)n[nH]c2=S)c1 | inactive | 
CCN(CC)CCNC(=O)c1[nH]c2ccccc2c1Sc1ccc(Cl)cc1 | inconclusive: 29.1 µM [inhibitor, single point] | 
CCn1cc(C(=O)NCc2cccs2)c(=O)c2cc(S(=O)(=O)N3CCOCC3)ccc21 | inactive | 
CCCc1n(CC(O)COC2CCCCC2)c2ccccc2[n+]1C (stereo unspecified) | active: 7.31 µM | 
O=C(NCc1ccccc1)c1cc(S(=O)(=O)N2CCC3(CC2)OCCO3)ccc1F | inconclusive: 14.6 µM [inhibitor, partial curve] | 
CCC(C(=O)NC1CCCCC1)N(C(=O)c1snc(C(N)=O)c1N)c1ccc(OC)cc1OC (stereo unspecified) | inactive | 
O=C1/C(=C/c2ccc(O)cc2)CCc2ccc([N+](=O)[O-])cc21 | inconclusive: 14.6 µM [inhibitor, single point] | 
CC(C)c1ccc(N2C(=O)CC(Sc3ncccn3)C2=O)cc1 (stereo unspecified) | inconclusive: 29.1 µM [inhibitor, single point] | 
O=C(CC1Oc2ccccc2NC1=O)NCCCN1CCN(C2CCCCC2)CC1 (stereo unspecified) | inactive | 
CN(C(=O)c1ccc2c(c1)N(Cc1ccccc1F)C(=O)c1ccccc1S2(=O)=O)C1CCCCC1 | inconclusive: 23.1 µM [inhibitor, single point] | 
COc1ccc(SC[C@H](C)CN2CC[C@H](NC(=O)OCc3ccccc3)CCC2=O)cc1 | inconclusive: 28.2 µM [inhibitor, partial curve, poor fit] and inconclusive: 23.1 µM [inhibitor, single point] | 
NCCC1CN(C(=O)OCc2ccccc2)c2ccccc21 (stereo unspecified) | active: 5.8 µM | 
Cc1ccsc1-c1cc2nc(Nc3ccc(F)cc3)n(C)c(=O)c2s1 | inconclusive: 29.1 µM [inhibitor, single point] | 
Cc1csc(-c2nc3ccccc3n2C(C(=O)NC(C)(C)C)c2ccccc2)c1 (stereo unspecified) | inconclusive: 29.1 µM [inhibitor, single point] | 
Cc1cc2oc(=O)cc(-c3ccccc3)c2c(C)c1-c1ccc(N(C)C)cc1 | inconclusive: 23.1 µM [inhibitor, single point] | 
CCn1c(C)nc2cc(NC(=O)Nc3cccc(C(C)=O)c3)ccc21 | inconclusive: 11.6 µM [inhibitor, partial curve] | 
